Source: publication PMC5515408
The list shows a part of the results. At the low end of the ranking the order means little.

Target: MAX:MAX (p21) (UniProt P61244-2)
Assay: protein-binding microarray (anti-MAX antibody)
Conditions: PBM: 15 mM Tris-HCl pH 7.5, 100 mM KCl, 0.075% NP40, 7.5 mM beta-mercaptoethanol, 375 ng/ul BSA, 8 ng/ul poly(dA-dT):(dA-dT), 550 ng complex, 60 min, room …; high values mean tight binding; double strand, one strand shown; sequences stand for … in CCGGC…TTAATAGCTAAGATTACTATATCGACG

| Sequence | binding signal (log2 normalized fluorescence) |
| --- | --- |
| TGAAGTAACGTA | -0.536 |
| TGAGTCGGAGTA | -1.18 |
| TGAACCTGGGTT | -0.488 |
| TGAGCACTTGTA | -0.125 |
| TGCTGCGTGGTA | 2.49 |
| TGATTAAAAGTA | -1.12 |
| TGAACGCTTGTA | 0.08 |
| TGACACTGTGTA | 0.343 |
| TGAGAACCTGTA | -0.248 |
| TGATAGGTGGTA | -0.482 |
| TGATGGAGTGTA | -0.0719 |
| TTAAAGGAGCAC | -0.212 |
| TGATGGACGGTA | -0.228 |
| TGAATTAGCGTA | -0.761 |
| TGAGGACCCGTA | -0.458 |
| TGATTTCTGGTA | -1.27 |
| ATTCACGTGGTA | 3.26 |
| TGACCTGTTGTA | 0.121 |
| TCCCACATGGTA | 3 |
| TGAATAATCGTA | -1.07 |
| TGAACTTCCGTA | -0.672 |
| TGAGAAGTTGTA | -1.17 |

| Sequence | binding signal (log2 normalized fluorescence) |
| --- | --- |
| TGAGTGACTGTA | -0.0764 |
| TGATAGAACGTA | -0.81 |
| TGATAGAAGGTA | -0.886 |
| TGAGCGATCGTA | -0.922 |
| CTGCACGTGGTA | 3.26 |
| TGATGTTGGGTA | -0.295 |
| TGAATAGTAGTA | -0.888 |
| CGACATGTAGTA | 2.04 |
| TGAAGCCCAGTA | -0.868 |
| TGATAAAGAGTA | -1.04 |
| TGAACCTGGGTA | -0.174 |
| TGAAGAGGCGTA | -0.839 |
| TGAACCCCAGTA | -0.421 |
| TGATAAATCGTA | -1.06 |
| AGACCCCTGGTA | 0.429 |
| TGTTACGGGGTA | -0.292 |
| TGACGATTGGTA | -0.87 |
| TGATTCTGCGTA | -1.15 |
| TGACACGTACAA | 1.23 |
| TGAGAGGGCGTA | -0.569 |
| TGATGCATGGTA | 2.17 |
| TGAGTCTTAGTA | -0.566 |

| Sequence | binding signal (log2 normalized fluorescence) |
| --- | --- |
| TGCCCCGTGGTA | 2.88 |
| TGACCATATGTA | 2.1 |
| TGACGTAGTGTA | -0.527 |
| TCGCACGTGGAA | 3.31 |
| TGAGATCACGTA | 0.425 |
| TGAGCGGGAGTA | -0.667 |
| CGACACATGGTT | 3.32 |
| TGAATCTTGGTA | -0.911 |
| TGACTTCGCGTA | -0.7 |
| TGACACGAAGTA | 0.881 |
| TGACGTTGTGTA | 0.0703 |
| TGAATTCACGTA | 0.205 |
| TGACACGTGCTG | 3 |
| TGACTGTATGTA | -0.127 |
| TGAATGGGAGTA | 0.156 |
| TGAATCATGGTA | 1.06 |
| TGAACGCACGTA | 1.14 |
| TGACTCCTTGTA | -0.617 |
| TGACACTGCGTA | -0.0944 |
| TGACGGGCGGTA | -0.202 |
| TGAGTCGGGGTA | -0.578 |
| TTTCACGTAGTA | 0.599 |

| Sequence | binding signal (log2 normalized fluorescence) |
| --- | --- |
| TGATCGAACGTA | -1.01 |
| TGACCGATTGTA | -0.596 |
| TGAGGGCCGGTA | -1.01 |
| TGAGCAGACGTA | -0.339 |
| TGACATTCAGTA | 0.265 |
| TGACTTTTTGTA | -0.87 |
| TGACGAGTAGTA | -0.708 |
| CTATTTGGACCC | -1.69 |
| CTCCACGTGGTA | 2.94 |
| TGACCCCAGGTA | -0.103 |
| TGACGTGCTGTA | 1.65 |
| TGAACTGATGTA | -0.133 |
| TGATGGCAGGTA | 0.226 |
| TGAAAAGGAGTA | -0.541 |
| TGACCTGAGGTA | 0.0241 |
| TGACGGACAGTA | -0.52 |
| TGACACGTCGCC | 2.12 |
| TAACACGTGCTT | 3.33 |
| TGATGCGCTGTA | 0.112 |
| TGAGCAACCGTA | -0.743 |
| TGACACGTTCTA | 2.94 |
| TGAAAGGTGGTA | 0.543 |
